Assay results reported in PubChem BioAssay AID1963576 (National Center for Advancing Translational Sciences (NCATS), 2024).
Out of some 46,000 compounds screened, about 60 (0.1%) were called active. Roughly 3% stayed inconclusive and do not appear here. Calls follow the shape of the dose curve; as a rule, active = well fitted inhibition curve with a large enough effect; inconclusive = small, poorly fitted or top-dose-only effect; inactive = no such curve, though single readings can be large or run the other way. The list shows a part of the results.

Experiment: Primary qHTS assay for Inhibitors of ovarian cancer metastasis using an organotypic tumor microenvironment (TME) model. Also: nearly all actives have a fitted effect of over 65% in size.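 As to activity change, negative = inhibition: plate controls were DMSO wells for no effect and tomatine positive control wells for full effect.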
Conditions: SKOV3ip1-GFP adhesion/invasion on 3D omental model, fluorescence; series mostly up to 45.8 µM; activity change, negative = inhibition: at the top concentration
Procedure, shortened: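 qHTS, 4-pt dose (0.36-46 umol/L); SKOV3ip1-GFP, 1,200 cells/well, no FBS; primary omental fibroblast/mesothelial co-culture 48 h pre-grown; 2 h RT + 16 h 37 C; PBS wash, 4% PFA; GFP count 488/509 nm.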

Activity change, negative = inhibition, inactive:
CCN(C(=O)Cn1c(C(=O)OC)cc2sc(Cl)cc21)c1cccc(C)c1 10.9%
CCc1ccc(S(=O)(=O)c2cn(CC(=O)Nc3ccc(F)c(Cl)c3)c3ccccc3c2=O)cc1 -8.04%
COc1ccc(N2C(=O)NC(NS(=O)(=O)c3ccc(Cl)cc3)(C(F)(F)F)C2=O)cc1 (stereo not given) 24.9%
CNC(=O)C1CCC(Cn2c(=O)c3sccc3n(Cc3cc(C)ccc3C)c2=O)CC1 (stereo not given) 6.9%
CSc1nc(NCCOC(C)=O)c(C#N)c(-c2ccc(C(C)(C)C)cc2)n1 -7.71%
CCOC(=O)c1c(NC(=O)c2cc(-c3ccccc3OC)on2)sc(C)c1C 2.43%
O=C(COc1ccccc1F)Nc1ccc2nc(SCC(=O)N3CCc4ccccc43)sc2c1 2.55%
CCc1ccccc1NC(=O)Cn1nc2c3cc(F)ccc3n(Cc3cccc(C)c3)cc-2c1=O 1.85%
COc1ccc(NC(=O)CCc2c(C)nc3c(c2C)c(=O)n(C)c(=O)n3C)c(OC)c1 -0.395%
COc1ccc(-c2nc3nc(C)cc(C)n3c2Nc2c(C)cccc2C)cc1 17.9%
Cc1cc(C)c2nc(N(Cc3cccnc3)C(=O)CCS(=O)(=O)c3ccccc3)sc2c1 -9.67%
Cc1cc(NC(=O)C2CCN(S(=O)(=O)c3c(C)noc3C)CC2)ccc1Br 6.46%
CC1=C(C(=O)Nc2cccnc2)C(c2ccc(F)cc2)n2nc(-c3cccc(C)c3)nc2N1 (stereo not given) -10.6%
CCc1ccc2oc(C(=O)NCC(c3ccc(OC)cc3)N3CCCCC3)c(C)c2c1 (stereo not given) 0.555%
N#Cc1c[nH]n2c(NC3CCCCC3)c(-c3ccc(F)cc3)nc12 -5.57%
CCc1ccc(OCC(=O)Nc2ccc3c(c2)c2ccccc2n3CC)cc1 13.3%
O=C(COc1ccccc1Cl)Nc1ccc(OCc2cc(=O)n3ccsc3n2)cc1 -6.77%
Cc1cc(C)cc(OCCSc2nc3ccc(NC(=O)c4ccc5c(c4)OCO5)cc3s2)c1 -3.3%
Cc1ccc(C)c(N2CCN(C(=O)c3ccc(-c4nc(COc5ccccc5)c(C)o4)cc3)CC2)c1 1.04%
CCOc1ccc(NC(=O)c2ccc3[nH]c(C)cc(=O)c3c2)cc1 16.8%
Cc1ccccc1C(=O)Nc1cccc(OCc2cc(=O)n3c4c(sc3n2)CCCC4)c1 -4.08%
CC1CCN(S(=O)(=O)c2ccc3c(c2)N(CC(=O)NCCN(C)C)C(=O)CO3)CC1 -2.47%
Cc1ccc(C)c(CNS(=O)(=O)c2ccc3c(c2)C(C)(C)C(=O)N3C)c1 -14.8%
O=C(CCCCn1c(=O)[nH]c2ccsc2c1=O)N1CCN(c2cccc(C(F)(F)F)c2)CC1 26.5%
CC(=O)N1CCc2c(sc3c2c(=O)n(-c2cccc(Cl)c2C)c(=O)n3Cc2ccccc2C)C1 9.24%
Cc1ccc2c(c1)cc1c(=O)n(CC(=O)N(C)c3ccccc3)nc(C)n12 93.4%
CCOC(=O)c1c(S(=O)(=O)N2CCCC(C(=O)NCc3ccc(F)cc3)C2)c(C)n(CC)c1C (stereo not given) -16%
COc1cccc(-c2nnc(SCC(=O)N3CCCCC3)o2)c1 10.2%
OC1CCC(Nc2ncc3nc(Nc4c(F)cc(F)cc4F)n([C@@H]4CCOC4)c3n2)CC1 (stereo not given in full) 33.4%
CCOC(=O)c1cccc(NC(=O)c2ccc3c(c2)nnn3CC)c1 2.11%
O=C(OCc1cc(=O)n2nc(-c3cccs3)sc2n1)c1cccc(Cl)c1 -5.73%
COc1ccc(CNC(=O)C2CCCN(S(=O)(=O)N(C)c3ccc(F)cc3)C2)cc1OC (stereo not given) 13.8%
Cc1ccc(C(C(=O)NC2CCCCC2)N(C)Cc2ccccc2)cc1 (stereo not given) -17.3%
CCOC(=O)c1ccccc1NC(=O)Cn1nnc2sc3c(c2c1=O)CCCC3 2.39%
CCOc1ccc(NC(=O)c2oc3ccccc3c2NC(=O)C2CCCCC2)cc1 11.9%
Cc1cccc(C)c1NC(=O)c1nc(S(C)(=O)=O)ncc1N(Cc1ccc(C(C)(C)C)cc1)Cc1ccco1 -2.9%
CCOC(=O)c1ccccc1Nc1nc2ccc(C)cc2n2nnnc12 -16%
Cn1cc(-c2cc3n(n2)CCC(=O)N3CCCC(=O)NCc2ccc(F)cc2)c2ccccc21 -11.5%
CCc1cccc(CC)c1NC(=O)CCS(=O)(=O)c1ccc(Br)s1 -26.5%
CC(C)CNC(=O)N1CCN(S(=O)(=O)c2ccc3c(ccn3C)c2)CC1 -11.2%
Cc1ccc(NC(=O)CSc2nc3nc(C)c(Cc4ccccc4)c(C)n3n2)cc1 8%
CCN1CCN(Cc2c(O)ccc3oc(C)c(C(=O)Nc4ccc(OC)cc4)c23)CC1 -7.92%
COc1ccc(-c2cc(C(F)(F)F)n3nc(C(=O)Nc4cc(C(F)(F)F)ccc4Cl)cc3n2)cc1OC -3.79%
COc1ccc(Cn2ccnc2SCC(=O)Nc2ccc3c(c2)OCO3)cc1 0.241%
Cc1ccc2oc3c(c(=O)c2c1)C(c1ccccc1F)N(c1ccccn1)C3=O (stereo not given) 8.91%
Cc1cccc(C(=O)NCC(c2cccs2)S(=O)(=O)c2cccs2)c1 (stereo not given) 4.39%
COc1ccc(C(=O)Nc2ccc(NC(=O)c3cccs3)cc2)cc1OC -14.5%
COc1ccccc1CCNC(=O)C(=O)NCC(c1ccco1)S(=O)(=O)c1cccs1 (stereo not given) 29.5%
Cc1ccc(NC(=O)N2CC3CCCN3c3ccccc32)cc1C (stereo not given) -19.5%
CN(C)c1ccc(CN(Cc2ccco2)C(=O)COc2ccc(F)cc2)cc1 -5.78%
O=C(NCC(c1ccc2c(c1)OCO2)N1CCN(c2ccccc2)CC1)C(=O)Nc1ccc(F)cc1 (stereo not given) -4.08%
CCOc1ccc(C(=O)c2cn(CC(=O)Nc3ccc(OC)cc3)c3cc4c(cc3c2=O)OCO4)cc1 -0.308%
CCOC(=O)c1ccc(CN(Cc2ccc(C)cc2)S(=O)(=O)c2ccc(F)c(C(=O)Nc3ccc(C)c(F)c3)c2)cc1 6.4%
Cc1ccc(-c2nc3n(n2)C(c2ccccc2Cl)C=C(c2ccc(Cl)cc2)N3)cc1 (stereo not given) 0.459%
C=C[C@@H]1CN2CCC1C[C@@H]2C(O)c1ccnc2ccc(OC)cc12 (stereo not given in full) -7.9%
COC(=O)c1sccc1S(=O)(=O)N(CC(=O)NCc1ccc(C)cc1)c1ccccc1 0.314%
N#Cc1c[nH]n2c(NC3CCCC3)c(-c3cccc(Br)c3)nc12 0.533%
CCS(=O)(=O)N1CC(=O)N(c2cccc(Cl)c2)C(C)(C(=O)NC2CCCCCC2)C1 (stereo not given) -1.73%
CC(C)CCn1c(=O)c2cccnc2n(CC(=O)Nc2ccccc2)c1=O -0.432%
Cc1oc(-c2ccc(C(=O)NCCC(C)C)cc2)nc1CS(=O)(=O)c1ccccc1 -7.97%
CCCC(=O)N1CCc2cc(OC)c(OC)cc2C1COc1ccccc1OC (stereo not given) 4.42%
Cc1ccn2c(NC(=O)c3cccc(Cl)c3)c(-c3ccccc3)nc2c1 48%
CCOCCCn1c(=N)c(C(=O)NC(C)c2ccccc2)cc2c(=O)n3cc(C)ccc3nc21 (stereo not given) -0.707%
Cc1cccc(C)c1NC(=O)Cn1c(=O)n(Cc2ccc(C(=O)NCc3ccco3)cc2)c(=O)c2sccc21 -23.3%
CCOC(=O)Cc1cc(C(=O)Nc2ccc(Br)cc2)sc1-c1ccc(C)cc1 -11%
Cc1cccc(N2CCN(C(=O)c3ccc4nc(N5CCC(C)CC5)sc4c3)CC2)c1C 1.64%
Cc1ccc2c(Sc3ccc(Cl)cc3)c(C(=O)NCCC(C)C)[nH]c2c1 4.38%
Cc1c(C(=O)N(Cc2ccc(N(C)C)cc2)CC2CCCO2)oc2ccccc12 (stereo not given) -1.1%
Cc1cc(C)cc(OCC(=O)Nc2nonc2-c2ccc(Br)cc2)c1 -2.15%
Cc1nc2sc(C)c(C)n2c(=O)c1S(=O)(=O)N1CCN(c2ccccc2F)CC1 0.563%
COc1ccc(CN(C(=O)c2ccccc2F)C2CCS(=O)(=O)C2)cc1 (stereo not given) -1.11%
Cc1ccc(NC(=O)CN2C(=O)c3cccnc3Sc3ccccc32)cc1C -3.89%
COc1ccc2[nH]cc(CCNC(=O)Nc3ccccc3)c2c1 -20.8%
CCc1nnc(SCc2nc(-c3ccccc3Cl)oc2C)c2cc3sc(C)cc3n12 -6.57%
COc1cc(O)c2c(c1)C1OC1C[C@H](O)[C@H](O)C(=O)C=CC[C@H](C)OC2=O (stereo not given in full) -27.3%
CCCSc1ncc(Cl)c(C(=O)Nc2ccc(S(=O)(=O)N3CCCC(C)C3)cc2)n1 (stereo not given) -1.69%
CCCN(Cc1cccs1)C(=O)Nc1cc(C)cc(C)c1 -7.1%
Cc1nn(C)c2c1c(-c1ccccc1)cc(=O)n2Cc1ccc(F)cc1Cl 4.3%

outcome, inactive:
Cc1ccccc1-c1nc(CN2CCCC(C(=O)NCc3ccc(Cl)cc3)C2)c(C)o1 (stereo not given)
Cc1ccc2nc(CN3CCN(C(=O)Nc4ccc(F)cc4)CC3)oc2c1
COc1ccc(C2C(=O)N(C3CCCCC3)CC(=O)N2CCc2ccc(C)cc2)cc1OC (stereo not given)
COc1ccccc1CNC(=O)C1(c2cccs2)CCOCC1
Cc1cccc(-n2ccnc2SCC(=O)Nc2cccc3ccccc23)c1
Oc1ccccc1-c1nc(-c2cccs2)c(-c2cccs2)[nH]1
COc1ccc(NC(=O)Cn2cc(S(=O)(=O)N3CCC(C)CC3)c3ccccc3c2=O)cc1Cl
COc1ccc2c(c1)c1c(c(=O)n(-c3ccc(C)cc3)c(=O)n1CC(=O)c1ccc(Cl)cc1)n2C
COc1ccc(CN(Cc2ccco2)C(=O)COc2ccc(Cl)cc2C)cc1
Cc1ccc(NC(=O)Cn2c(=O)c(C(F)(F)F)nc3ccccc32)cc1C
Cc1oc2c(c1C(=O)Nc1ccc(F)c(F)c1)C1=NCCN1C=N2
Cc1ccc(S(=O)(=O)NC2(C(F)(F)F)NC(=O)N(c3ccc(F)cc3)C2=O)cc1 (stereo not given)
CC1CCN(S(=O)(=O)c2ccc3c(c2)CCN3C(=O)Nc2cccc(Br)c2)CC1
CCOC(=O)c1c(C)[nH]c(C)c1S(=O)(=O)N1CCCC(C(=O)Nc2ncccc2C)C1 (stereo not given)
O=C(Nc1nc2c(F)cccc2s1)c1ccc(S(=O)(=O)N2CCOCC2)cc1
CCN(CC)C(=O)Cn1c(=O)n(-c2ccc(Cl)cc2)c(=O)c2c3c(sc21)CCCCC3
CCOc1ccc(CCNC(=O)CCn2c(=O)c3cccn3c3ccc(F)cc32)cc1OCC
